In the RNAGym collection of RNA variant scans (doi:10.1093/nar/gkz1192) one finds self-cleavage data, which are given here for 167 variants.

The source gives no read counts; variants with many changes may rest on few reads.

B1: CPEB3 Ribozyme (parent)
chain: UAACAGGGGGCCACAGCAGAAGCGUUCACGUCGCAGCCCCUGUCAGAUUCUGGUGAAUCUGCGAAUUCUGCUGUAUAUCUC

Variants of B1 are the subject of this series. Kind of series: self-cleavage, relative activity (ratio to wild type); higher = more cleavage; in vitro, sequencing. The procedure, abridged:
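CPEB3 self-cleaving ribozyme mutant libraries were made by rounds of error-prone PCR, barcoded, and transcribed in vitro with T7 RNA polymerase for 5 hours at 37°C. Cleavage occurred during transcription and a 15 min DNase I step before EDTA stop. RNAs were reverse transcribed with template switching and Illumina-sequenced, with DNA sequencing mapping barcodes to variants. Relative activity is the variant's cleaved/total read fraction divided by wild type's (minimum 5 reads), averaged across three batches.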
On to A15G G22U U26C A45G A64U U80C, for which the self-cleavage came to 0.08.

Take A15G C37U U51C U54A A64G: the self-cleavage amounted to 0.21. Next, A15G G52U U69C: 0.14.

A15G A28G U31C A35C U54A C62G G70A: the self-cleavage is 0. For A15G A28G C37U U48C U51C U67C the value was 0; for A15G A21U U41A G52C, 0.24; for A15G A20G U25C A35U, 0.1. Next, A15G A20G C39G U51A A65G C79A: 0.03.

With A15G A20G C32U U80C, the self-cleavage was determined as 0.11. Take A15G A35U G42C A56G: the self-cleavage is 0.05. For A15G C40U U80C the value was 0.66; for A15G A21G C40U U41C U43C A57G U78C, 0.25; for A15G C34U A75U, 0.1. With A15G A21U A28G, the self-cleavage was found to be 0.35.

With A15G A20G U60A, the self-cleavage was determined as 0.14. Regarding A15G G24A G33A U41G G73A, the self-cleavage stood at 0.14.

For A15G A21G U25C, the self-cleavage came out at 0.83.

On to A15G G33A A35G A56U U58A U67A, for which the self-cleavage is 0.11. Next, A15G A18G U60C A65U U80C: 0.07; A15G A28U U41C U43A A64G U72C U76A: 0.27. On to A15G C40A U48A U69C A77G, for which the self-cleavage amounted to 0.1. Take A15G A21G U26A A64G: the self-cleavage is 0.27. In the case of A15G A18G A77U, the self-cleavage came out at 0.36. For A15G A28G A56G G61C the value was 0.12. Next, A15G C23G U26C G52C U67C: 0.06. A15G G33A C62U: the self-cleavage is 0.31. Next, A15G A18G G24A U60C: 0.2; A15G C34U G42A U49C C71U C79U: 0.22; A15G G22C U51A U80A: 0.35. A15G A35U U41A U58C A64G U80C: the self-cleavage is 0.09. A15G G16U A21G U25C U41A U43A A57G: the self-cleavage came to 0.16. For A15G C40U U67A the value was 0.11; for A15G A20G G73A, 1.09; for A15G C29U U58C, 0.15. Next, A15G A45G G52C U60C: 1.14; A15G G33A A57G: 0.07; A15G C17U A21G U69C: 0.21. On to A15G A20U U41A A45G U54A U66C U69A, for which the self-cleavage was found to be 0.35. On to A15G A28U U67A, for which the self-cleavage was determined as 0.19. Next, A15G A28G A45G: 0.3. For A15G A20U A35U U80C the value was 0.18; for A15G A45U U51G U58G U69A, 0.15. On to A15G G33A U54C, for which the self-cleavage came out at 0.16. Next, A15G A18G U26C A47U U72C: 0.12. A15G A35U A45G G52A: the self-cleavage turned out to be 0.43. Next, A15G C27A C32U U58C: 0.2; A15G A35U A57U U69A: 0.12; A15G A20U U43C G63U U78C: 0.22. For A15G A35U U48C U80C the value was 0.64; for A15G A28G U41C U72A U80A, 0.32. For A15G A47G U49C C68G the value was 0.12. On to A15G G36A U49C U58C A77G, for which the self-cleavage was 0.06. On to A15G A45G G52C A56G, for which the self-cleavage came to 0.34.

A15G A45G A47U U67A: the self-cleavage turned out to be 0.21. Take A15G A18G U43A: the self-cleavage was 0.18.

As for A15G A21G C27U A75G, the self-cleavage was 0.47. With A15G A18U C39U G53U, the self-cleavage was determined as 0.21. For A15G A45U U76A U78C the value was 0.28; for A15G A18G A57U, 0.12. As for A15G A20G A21G, the self-cleavage was 0.3. For A15G A28C C38A U43C A57U A64C, the self-cleavage worked out at 0.08.

As for A15G A18G U41A U49C A57U A64G, the self-cleavage worked out at 0.06.

Turning to A15G A21G U66A A77U, the self-cleavage came to 0.41.

In the case of A15G G19U U41C U60C A64G G73A U74C, the self-cleavage is 0.07. For A15G G33U U76A the value was 0.12. Next, A15G A47G U76C: 0.88; A15G A20G G30A U49C U69C: 0.75; A15G A45G U76C: 0.22. Turning to A15G C50G U60C, the self-cleavage turned out to be 0.19.

Regarding A15G A18U A47G U58A U66C, the self-cleavage was determined as 0.07. For A15G A20G G55U the value was 0.46; for A15G C38U U51C, 0.68. In the case of A15G A64G C79A, the self-cleavage is 1.15.

Consider A15G C29A A56U, for which the self-cleavage was 0.24.

For A15G A45U U58A U76C A77G, the self-cleavage amounted to 0.14. Next, A15G C27A G42A A47G U69A: 0.22; A15G A35U U41A U48C U80C: 0.14. For A15G A18U U80A the value was 0.39; for A15G C38A U74A, 0.38. Take A15G A18U G24A C39U G46A C50A A65G: the self-cleavage stood at 0.05. For A15G A21G A35G C59G U60A the value was 0.33; for A15G A21U U80A, 0.22. For A15G C38A A64U U80C the value was 0.21; for A15G A57G U76C, 1.17; for A15G A47G A56G C62A U72C, 0.2. Take A15G C34G A64G U69C C71A U74C: the self-cleavage stood at 0.1. On to A15G C17A A57G U80C, for which the self-cleavage worked out at 0.49. For A15G A18U U48C U51A the value was 0.38. For A15G A21G U25C U51C A57G U69C the value was 0.33; for A15G A21G A45G U54G U58G, 0. Next, A15G A35G A45G A64U: 0.36; A15G A65G U80A: 0.14; A15G A28U A57G U72A: 0.11. A15G A18G U41A U80A: the self-cleavage worked out at 0.43. Next, A15G C34G U43C U48C U54A U78G: 0.08. As for A15G A28U U43C U72C A75G, the self-cleavage stood at 0.27. Next, A15G A56G U69A: 0.2; A15G C39U A47U: 0.39.

As for A15G A18G A57G A64G U67C U78A U80C, the self-cleavage was determined as 0.09. For A15G A35U U41G A57G A75G, the self-cleavage was found to be 0.12. For A15G C50A U51C G52U U60C, the self-cleavage came out at 0.23.

Take A15G A47G U54C A56U U78A: the self-cleavage is 0.38. Next, A15G G16U G73C: 0.85; A15G A20G A21G U51A U72C: 0.63.

As for A15G G33C C44A A56G C62G U69A, the self-cleavage stood at 0.1.

Regarding A15G G19U A35G U41C A75U C79A, the self-cleavage came out at 0.27. Turning to A15G A45G G52A U54C U78C, the self-cleavage came to 0.99. For A15G C23U A28G A45G the value was 0.09.

A15G A28U U60A: the self-cleavage is 0.05. For A15G C17U U58C A75G the value was 0.09; for A15G G33A A64G C71G U78A, 0.04. On to A15G C59A U69C U74A, for which the self-cleavage was found to be 0.16. Take A15G A75U U80A: the self-cleavage came out at 1.23. Next, A15G A18U G52U U58G A75U U78C: 0.22; A15G A28U C29U: 0.3. With A15G A20U U25C A45G U51C C71A U72A, the self-cleavage is 0.12.

A15G A28G U54G A56U: the self-cleavage stood at 0.16. For A15G A35G A45U U51C U69C U72C the value was 0.13; for A15G A35U U43C A64U U69C U72C, 0.11; for A15G A21G C34U A45G, 0.21.

In the case of A15G A20U U25C A65G U69A U78C, the self-cleavage was found to be 0.19. For A15G G42A U51C G63A C79A the value was 0.45; for A15G G33C A35U U43G A56G, 0.07; for A15G A20C U58C A64U, 0.13. Next, A15G A20U U80A: 0.28; A15G A21G A65G U67C A75U: 0.2.

Consider A15G C32U A56C U66A, for which the self-cleavage worked out at 0.08.

Take A15G A20U U48C A57G A77C: the self-cleavage stood at 0.09. On to A15G A28C U41A C44U A56U, for which the self-cleavage was 0.06. For A15G G30U U67A the value was 0.17; for A15G A28G A35G U67C C79A, 0.14. For A15G C29U U41C A64U the value was 0.11; for A15G A21U U25C U54C U76C, 0.19; for A15G C39G U43C U58A U80C, 0.18. For A15G G46A U54C A75G the value was 0.04; for A15G C37U A65G, 0.19. For the variant A15G A21G G30A A56G U58C, the self-cleavage came to 0.2. On to A15G A28U A35G, for which the self-cleavage is 0.37. For A15G A18G U25C U41C the value was 0.39; for A15G A21G U51A A56U U60C U72C, 0.13. Take A15G A20U U26C A75G: the self-cleavage worked out at 0.31. On to A15G A28U C40U A45U A47G U51A G53A, for which the self-cleavage is 0.07. Next, A15G A57U A75G: 0.19. A15G A65U U80A: the self-cleavage stood at 0.07. Regarding A15G C62U A65G U80C, the self-cleavage turned out to be 0.32.

Turning to A15G A28G A56G C71G, the self-cleavage was found to be 0.23. As for A15G A57G U66C U72C, the self-cleavage was 0.18.

In the case of A15G G42C A47U U51A G63U U80C, the self-cleavage is 0.34.

On to A15G A28G U48C U60A U72G, for which the self-cleavage is 0.1.

With A15G A18U U31C A35U U51A U66C U67C, the self-cleavage was 0.16. For A15G A20C U41C C44A, the self-cleavage was 0.55. For A15G A28G C62U A65G U66C U76C the value was 0.11; for A15G C44U U54A, 0.28; for A15G C37A C39U U60A U69G, 0.1.

Turning to A15G G30A U43G A64U, the self-cleavage worked out at 0.25.

Regarding A15G A28C G30A A57G U69C, the self-cleavage was 0.07.

For the variant A15G A20G U25A, the self-cleavage came to 0.23. For A15G A28U G33C U43C U60C the value was 0.12; for A15G C29U G36C U60C U72C U78C, 0.06; for A15G A20G A28G U43C U72C, 0.14.

Take A15G A21C U26C A56G: the self-cleavage turned out to be 0.31. For A15G G24A U25A the value was 0.05; for A15G A35G U54C, 0.44; for A15G A45G U51C A64G U66C A75U, 0.11. For A15G C39A A47C U49C the value was 0.19; for A15G A21G A75U, 0.82. With A15G G19C U41C U66A U78C, the self-cleavage was determined as 0.12.
